Measurements taken from PubChem BioAssay AID1159614 (National Center for Advancing Translational Sciences (NCATS), 2016).
In all, about 45,000 compounds went through this assay and about 65 (0.1%) were called active. Calls come from the whole dose curve; as a rule, active = well fitted activation curve with a large enough effect; inconclusive = small, poorly fitted or top-dose-only effect; inactive = no such curve, though single readings can be large or run the other way. The list shows a part of the results.

The compounds below were run against Galactocerebrosidase (Homo sapiens) (UniProt P54803) (assay: A Novel Cell-Based Assay to Identify Small Molecules for B -Galactocerebrosidase). Settings: 145M-Twi-hGALC-G270D cells (Twitcher mouse brain line with human GALC G270D), HMU-beta-Gal fluorescence, 48 h; series mostly up to 57.5 µM; activation: at the top concentration.
Method in brief: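 Brain-derived Twitcher mouse 145M-Twi cells stably expressing human GALC-G270D or wild-type GALC, treated live, then residual GALC activity read by fluorescence of HMU-b-Gal substrate (0.1 mM final) in citrate-phosphate buffer pH 5.2 with sodium taurocholate. Signal increase indicates enhancement.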
Note: 0% is about no effect; nearly all actives have a fitted effect of over 65% in size.

UniProt P54803, sequence (P54803 whole entry, looked up): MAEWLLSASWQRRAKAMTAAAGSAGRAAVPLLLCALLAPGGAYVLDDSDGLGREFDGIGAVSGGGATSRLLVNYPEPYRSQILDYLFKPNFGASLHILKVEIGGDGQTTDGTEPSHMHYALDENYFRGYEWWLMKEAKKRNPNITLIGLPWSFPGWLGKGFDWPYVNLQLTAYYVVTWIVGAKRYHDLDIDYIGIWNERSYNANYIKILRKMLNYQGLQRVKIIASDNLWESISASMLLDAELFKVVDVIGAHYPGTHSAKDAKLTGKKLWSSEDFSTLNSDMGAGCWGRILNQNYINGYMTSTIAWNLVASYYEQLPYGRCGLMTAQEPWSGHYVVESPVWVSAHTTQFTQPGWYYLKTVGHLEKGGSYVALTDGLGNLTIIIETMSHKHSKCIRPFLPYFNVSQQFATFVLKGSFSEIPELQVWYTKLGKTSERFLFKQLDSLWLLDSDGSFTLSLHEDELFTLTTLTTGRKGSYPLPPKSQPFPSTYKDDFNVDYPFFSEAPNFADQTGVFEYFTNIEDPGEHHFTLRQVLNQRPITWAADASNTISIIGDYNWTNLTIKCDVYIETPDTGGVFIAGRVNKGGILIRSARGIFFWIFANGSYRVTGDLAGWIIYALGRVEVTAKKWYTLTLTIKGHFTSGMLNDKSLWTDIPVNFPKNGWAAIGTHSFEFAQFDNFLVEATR

activation, inactive:
CCOc1ccc(OCC)c(Nc2ccc3cc(S(=O)(=O)N4CCCC4)ccc3n2)c1 -0.539%
CCC1CN(C(=O)N2CCC(C(=O)NCc3cccc(OC)c3OC)CC2)c2cc(C)ccc2O1 (stereo not drawn) 1.05%
CCC1=Nc2cc(C(=O)NC3CCC(C)CC3)ccc2Sc2ccc(C)cc21 (stereo not drawn) -13.2%
Cc1ccccc1NC(=O)CSc1nc2ccc(NC(=O)c3cccs3)cc2s1 -35.3%
CCc1ccc(NC(=O)CCn2c(=O)c3cccn3c3ccccc32)cc1 -0.564%
COc1ccc(NC(=O)CSc2ccc3nc(-c4ccccc4)cn3n2)c(OC)c1 -21.5%
Cc1ccc(NC(=O)c2ccc3[nH]c(C)cc(=O)c3c2)cc1 -8.73%
CSc1cccc(NC(=O)c2cccc(N3CCCS3(=O)=O)c2)c1 -8.55%
COc1cccc(-c2noc(C3CC(=O)N(c4ccc(F)cc4)C3)n2)c1OC (stereo not drawn) -19.6%
COc1ccccc1CNC(=O)c1cc2sccc2n1Cc1ccc(Cl)cc1 -5.24%
CCOCCCNC(=O)C1CCN(C(=O)c2cc3sccc3n2C)CC1 -19.6%
Cc1cc2c(cc1NC(=O)c1ccccc1C)n(C)c(=O)c(=O)n2C -6.26%
COc1ccc(CCNC(=O)CCCn2c(=O)c3cccn3c3ccccc32)cc1OC -10.6%
COc1cc(-c2nnc(SCCOc3ccc(Cl)cc3)o2)cc(OC)c1OC -5.26%
O=C(COc1ccccc1)OCc1cc(=O)n2nc(C3CC3)sc2n1 -5.68%
CCc1ccc2oc(C(=O)Nc3cccc(Cl)c3C)cc(=O)c2c1 -8.14%
COc1ccc(NC(=O)CCCN2C(=O)C(c3ccccc3)Oc3cccnc32)c(OC)c1 (stereo not drawn) -4%
CCc1ccc(CNC(=O)CCCN2C(=O)CCn3nc(-c4cccn4C)cc32)cc1 -20.7%
CC(C)CCN(Cc1ccco1)C(=O)c1cc2c(s1)-c1ccccc1OC2 -9.76%
Cc1ccc(C(=O)Nc2cc(-c3nc4ncccc4o3)ccc2C)c(C)c1 -18.9%
COCc1nn2cc(-c3ccc(C)cc3)nc2s1 -6%
Cc1ccc(C(=O)c2c(N)c(-c3nc(-c4ccc5c(c4)OCO5)cs3)c3ccccn23)cc1C -25%
Cc1cccc(N2CCN(C(=O)Cc3c(C(=O)O)c(C)cn3C)CC2)c1C -12.6%
COC(=O)c1ccc(Cn2cnc3nc4c(cc3c2=O)CCCC4)cc1 -9.36%
CC(=O)N1CCc2c(sc3c2c(=O)n(Cc2ccccc2)c(=O)n3Cc2ccc(C)cc2)C1 -3.66%
CC(=O)c1ccc(N2CCN(C(=O)C3CCN(S(=O)(=O)c4c(C)noc4/C=C/c4ccc(C)cc4)CC3)CC2)cc1 2.73%
CCOc1ccccc1NC(=O)Cn1ncc2c(=O)oc3ccc(C)cc3c21 -15.9%
COc1ccccc1NC(=O)CSC1=Nc2ccccc2C2=NC(CCC(=O)NCCc3ccccc3)C(=O)N12 (stereo not drawn) -5.85%
